Data: PubChem BioAssay AID1347120 (National Center for Advancing Translational Sciences (NCATS), 2019)
In all, about 390,000 compounds went through this assay and about 930 (0.24%) were called active. The shares of active, inactive and inconclusive entries below differ from those in the screen. Calls come from the whole dose curve; as a rule, active = well fitted activation curve with a large enough effect; inconclusive = small, poorly fitted or top-dose-only effect; inactive = no such curve, though single readings can be large or run the other way. A potency beside an inconclusive call is a rough fit, not a confirmed value.

test: qHTS for Suppressors of FUS Proteinopathy: Primary screen using FUS-linked yeast assay; note: nearly all actives have a fitted effect of over 55% in size; conditions: S. cerevisiae FUS-expressing, OD600, 24 h; Potency: growth rescue; series mostly up to 76.6 µM
Method in brief: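 Steps: raffinose overnight preculture; dilution to OD 0.005 in 2% galactose minimal medium; compound addition (concentration series); 24hr at 30C, 99% humidity; absorbance read at 600 nm.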
Potency is the fitted concentration of half-maximal effect; tags give direction and shape of the fitted curve.

Structure (SMILES) | Potency
O=C(O)CN1C(=O)/C(=C\c2cc(Br)ccc2OCc2ccc(Cl)cc2)SC1=S | inactive
CC(=O)N1CCCc2cc(S(=O)(=O)N3CCCC(C(=O)Nc4cccc(C)c4)C3)ccc21 (configuration not stated) | inconclusive: 12.6 µM [activator, partial curve]
C#CCOCCOCCOCCNc1nc(N2CCN(C(=O)[C@H]([C@@H](C)CC)n3cc([C@@H](N)Cc4ccc(O)cc4)nn3)CC2)nc(N2CCN(C(=O)[C@H](Cc3ccc(O)cc3)n3cc([C@@H](N)CC(C)C)nn3)CC2)n1 | inconclusive: 2.82 µM [activator, full curve]
O=C(CN1C(=O)COc2ccc(S(=O)(=O)NC3CCCC3)cc21)Nc1ccc(F)c(Cl)c1 | active: 20 µM
CCCCCCn1c(CN2CCN(C(=O)c3ccco3)CC2)nc2c1c(=O)n(C)c(=O)n2C | inconclusive: 14.1 µM [activator, partial curve]
O=C(Nc1ccccc1)Nc1c(-c2ccc(F)cc2)nc2ncccn12 | inactive
O=C(NCCn1cc(SCc2ccc(C(F)(F)F)cc2)c2ccccc21)c1cccs1 | inconclusive: 50.1 µM [activator, single point]
CC(=O)[C@@H]1[C@@H](C(=O)c2ccc(C)cc2)[C@]2(C(=O)Nc3ccccc32)[C@H]2C=Cc3cc(F)ccc3N12 | inconclusive: 35.5 µM [activator, single point]
CCOC(=O)c1cc(-c2ccco2)nc2c1c(C)nn2CCC#N | inconclusive: 22.4 µM [activator, partial curve]
Cc1ccc(-n2c3c(c(=O)[nH]c2=O)C(NC(=O)C(C)(C)C)(C(F)(F)F)C(=O)N3)cc1 (configuration not stated) | inactive
CC(C)(C)c1ccc(Cn2nnc3c(=O)[nH]c(C4CCN(C(=O)c5ccco5)CC4)nc32)cc1 | inconclusive: 31.6 µM [activator, single point]
Nc1scc2c(C(=O)N/N=C/c3ccc(Cl)cc3)nn(-c3ccccc3)c(=O)c12 | inconclusive: 39.8 µM [activator, partial curve, poor fit]
CCN(C[C@H]1[C@@H](c2ccc(C3=CCCC3)cc2)[C@H](CO)N1Cc1ccccn1)S(=O)(=O)c1ccccc1[N+](=O)[O-] | inactive
Cc1cc(C#N)c(C)n1-c1cc(S(=O)(=O)N2CCOCC2)ccc1N1CCCC1 | inconclusive: 31.6 µM [activator, partial curve, poor fit]
COc1ccc(OC)c(Nc2nc(-c3sc(NC(=O)C(C)(C)C)nc3C)cs2)c1 | inconclusive: 31.6 µM [activator, single point]
O=C(CN1CCN(c2nc(-c3ccccc3)cs2)CC1)Nc1ccc(Cl)c(Cl)c1 | inactive
O=C(COC(=O)C1(c2ccccc2F)CCCC1)Nc1ncc(C(F)(F)F)cc1Cl | inconclusive: 0.794 µM [activator, partial curve, poor fit]
Cc1ccc(C)c(C(=O)OCC(=O)Nc2cccc(S(=O)(=O)N3CCCCC3)c2)c1 | inconclusive: 28.2 µM [activator, single point]
O=C(NC1CCCC1)c1ccc2c(c1)N(Cc1c(F)cccc1Cl)C(=O)c1ccccc1S2 | inconclusive: 20 µM [activator, partial curve]

Structure (SMILES) | Potency
C[C@@H]1CN([C@H](C)CO)C(=O)c2cc(NC(=O)Cc3cn(C)c4ccccc34)ccc2O[C@H]1CN(C)S(=O)(=O)c1ccc(F)cc1 | inconclusive: 20 µM [activator, partial curve, poor fit]
C/C(=N\Nc1cc(-c2ccccc2)nc(-c2ccc(Br)cc2)n1)c1cccc(N)c1 | active: 12.6 µM
COc1nc(OC)nc(N2CCC(C(=O)NCc3cccc(OC)c3OC)CC2)n1 | inactive
COc1cc2cc3c(N)c(C(=O)NCc4ccco4)sc3nc2cc1OC | inconclusive: 31.6 µM [activator, single point]
COc1ccc(CNC(=O)c2ccc(-c3nc(CSc4ccccc4)c(C)o3)cc2)cc1 | inactive
O=C(Cn1nc(-c2ccccc2)ccc1=O)Nc1ccc(N2CCN(C(=O)c3cccs3)CC2)cc1 | active: 8.91 µM
CCc1cccc(C)c1NC(=O)COC(=O)C1CC(=O)N(CCc2ccc(OC)c(OC)c2)C1 (configuration not stated) | inactive
O=C(Oc1c(CN2CCOCC2)cc(Cl)c2cccnc12)c1ccccc1Cl | inactive
CCOc1ccc(C(=O)N/N=C/c2cc([N+](=O)[O-])cs2)cc1 | inconclusive: 5.01 µM [activator, full curve, poor fit]
COCOc1ccc(/C=C/C(=O)c2c(O)cc(OCOC)cc2OCOC)cc1 | inconclusive: 28.2 µM [activator, partial curve, poor fit]
Cc1cc(N2CCCCC2)n2ncc(-c3ccc(Cl)cc3)c2n1 | active: 11.2 µM
CC(=O)Nc1ccc(Nc2nc(C)c([N+](=O)[O-])c(N(C)c3ccccc3)n2)cc1 | inconclusive: 50.1 µM [activator, single point]
COc1ccc(-n2ncc3c2CC(C)(C)CC3NC(=O)CCCN2CCCC2=O)cc1 (configuration not stated) | inconclusive: 3.98 µM [activator, full curve]
Cn1c(SCC(=O)N2CCc3ccccc32)nnc1-c1ccc(S(=O)(=O)N2CCCC2)cc1 | inconclusive: 39.8 µM [activator, partial curve, poor fit]
CCCCCCCCN1C(=O)[C@H](CC(=O)N2CCSCC2)C[C@@]2(C(=O)OC)CC(C)(C)CC=C12 | inconclusive: 11.2 µM [activator, partial curve, poor fit]
NC(=O)C1CCN(c2nc(-c3ccc(Oc4ccccc4)cc3)cs2)CC1 | inconclusive: 14.1 µM [activator, partial curve, poor fit]
CCCNC(=O)c1ccccc1NC(=O)c1ccc2c(=O)n3c(nc2c1)CCC3 | inconclusive: 8.91 µM [activator, partial curve, poor fit]
CC1C(=O)N(Cc2cn(CC3CCCCC3)nn2)CCS(=O)(=O)N1Cc1ccc(-c2cccc(CO)c2)cc1 (configuration not stated) | inconclusive: 31.6 µM [activator, single point]
